Measurements reported in the supplement of paper PMC7125110.
± gives the standard error. Variants at the background level are over-represented here.

B1: glmS ribozyme (parent)
chain: AUAAAAGCGCCAGAACUACAGAAAUGUAGUUGACGAGGAGGAGGUUUAUCGAAUUUUCGGCGGAUGCCUCCAAA

Columns and labels:
Conditions in all cases: with glucosamine-6-phosphate
glucosamine-6-phosphate [1] = variants of: B1; assay: self-cleavage kobs at 160 uM GlcN6P; higher = faster cleavage; RNA array
Outline: (§1)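 Weighted Michaelis–Menten fits across concentrations supplied kcat and KM, based on kobs from one- or two-exponential decay fits to normalised per-tile medians. The data came from barcoded ribozyme variants transcribed in situ by E. coli RNA polymerase on sequenced MiSeq chips and tracked at 37 °C by a hybridised Cy3 probe. Glucosamine-6-phosphate (40 μM to 10 mM) in HEPES/KCl/Mg(OAc)2 buffer was flowed in.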

glucosamine-6-phosphate [2] = variants of: B1; assay: self-cleavage kobs at 2500 uM GlcN6P; higher = faster cleavage; RNA array
Outline: as §1

glucosamine-6-phosphate [3] = variants of: B1; assay: self-cleavage kobs at 640 uM GlcN6P; higher = faster cleavage; RNA array
Outline: as §1

glucosamine-6-phosphate [4] = variants of: B1; assay: self-cleavage kobs at 10000 uM GlcN6P; higher = faster cleavage; RNA array
Outline: as §1

Variant	self-cleavage kobs at 160 uM GlcN6P (glucosamine-6-phosphate [1]) [s⁻¹]	self-cleavage kobs at 2500 uM GlcN6P (glucosamine-6-phosphate [2]) [s⁻¹]	self-cleavage kobs at 640 uM GlcN6P (glucosamine-6-phosphate [3]) [s⁻¹]	self-cleavage kobs at 10000 uM GlcN6P (glucosamine-6-phosphate [4]) [s⁻¹]
G7U A12G U45C U46G C71U	< 1e-05	< 1e-05		
A52G G63U			< 1e-05	
C10A A14G G62A	< 1e-05	< 1e-05		
G7A U54G	< 1e-05			4.41e-05 ± 1.5e-05
U49G G62U A64C	< 1e-05	< 1e-05	< 1e-05	< 1e-05
U45G G51U A53C U57A		< 1e-05	< 1e-05	
G51U U56A G63U		< 1e-05	< 1e-05	
C10U G62A U65G	< 1e-05	< 1e-05		
G43C C71G	< 1e-05	< 1e-05	< 1e-05	
U46G A52C	< 1e-05		< 1e-05	< 1e-05
G66U U69G		4.9e-05 ± 2.2e-05	5.52e-05 ± 2.5e-05	
C10A G13A A53C U69C	< 1e-05			
A42C U47G U57C			< 1e-05	
U47G A53G U57C C68U		3.84e-05 ± 1.3e-05	3.09e-05 ± 1.2e-05	8.44e-05 ± 1.8e-05
A12C C16U U57A	< 1e-05			
C10A G35A	< 1e-05	< 1e-05		< 1e-05
G7A G9A A14G U55G	< 1e-05			
G60U G62A C67U			< 1e-05	
G13U A48U	< 1e-05			
U45A G60A G66U	< 1e-05	< 1e-05	< 1e-05	

Variant	self-cleavage kobs at 160 uM GlcN6P (glucosamine-6-phosphate [1]) [s⁻¹]	self-cleavage kobs at 2500 uM GlcN6P (glucosamine-6-phosphate [2]) [s⁻¹]	self-cleavage kobs at 640 uM GlcN6P (glucosamine-6-phosphate [3]) [s⁻¹]	self-cleavage kobs at 10000 uM GlcN6P (glucosamine-6-phosphate [4]) [s⁻¹]
U56C G60U C70G		< 1e-05	< 1e-05	< 1e-05
C11A A42U C58U C68G	< 1e-05	< 1e-05		
G9A A33C U49C C68U	< 1e-05			
A42U C50A		< 1e-05	< 1e-05	
G44A G59A C67U	< 1e-05		< 1e-05	
C8A A36C A42C G66C C67A	< 1e-05	< 1e-05		
G43A G44C G51U G63C C70A			< 1e-05	
A6G C8G U31A G32U	< 1e-05			
U46A G66A		0.000321 ± 8.6e-05	0.000156 ± 3.3e-05	0.00063 ± 7.9e-05
A12U U30C G51U	< 1e-05			
A12G U31C G32C C50U G63A	< 1e-05			
A6U G41U	< 1e-05			
U55C G62U	< 1e-05	< 1e-05	< 1e-05	< 1e-05
G7A C8U A64U C70G	< 1e-05	< 1e-05		
G9U A33C C67G	< 1e-05	< 1e-05		
C10U A42G A53U	< 1e-05			
G13C G51U C61G	< 1e-05			
G7A G29A A48U G60C G63A	< 1e-05	< 1e-05		
A6U G37C C71U	< 1e-05			
C8A G32C U54C	< 1e-05			

Variant	self-cleavage kobs at 160 uM GlcN6P (glucosamine-6-phosphate [1]) [s⁻¹]	self-cleavage kobs at 2500 uM GlcN6P (glucosamine-6-phosphate [2]) [s⁻¹]	self-cleavage kobs at 640 uM GlcN6P (glucosamine-6-phosphate [3]) [s⁻¹]	self-cleavage kobs at 10000 uM GlcN6P (glucosamine-6-phosphate [4]) [s⁻¹]
G41U A52U U57G G59U		< 1e-05	< 1e-05	
U47G G51U			< 1e-05	
C58A C70U	3.94e-05 ± 9.4e-06	0.000143 ± 1.3e-05	6.79e-05 ± 8.4e-06	0.000145 ± 1.7e-05
G62U C68U			< 1e-05	
C11G A33U	< 1e-05	< 1e-05		
U46G A52U C58U A64G		< 1e-05	< 1e-05	
U57G C61A G62C A64U		< 1e-05	< 1e-05	< 1e-05
C61U C67U	< 1e-05		< 1e-05	
A53C G66U	3.36e-05 ± 1.5e-05	0.000344 ± 8.3e-05	0.000128 ± 3.6e-05	0.00039 ± 7.6e-05
G43U C50G C71U	< 1e-05	< 1e-05	< 1e-05	
C8G U46A	< 1e-05	< 1e-05		< 1e-05
U57C G59A		< 1e-05	< 1e-05	< 1e-05
A42C U55C U65A C67U C68U C70G		< 1e-05	< 1e-05	
G13C U47A G62A	< 1e-05	< 1e-05		
G51A A53G			< 1e-05	
A6C C10A A39C	< 1e-05	< 1e-05		
A6G A36U G41C A64G	< 1e-05	< 1e-05		< 1e-05
C10G C11A C16A G59A	< 1e-05	< 1e-05		
